# Laboratory results from PubChem BioAssay AID1345082 (National Center for Advancing Translational Sciences (NCATS), 2018).
# Out of some 94,000 compounds screened, about 4,000 (4.3%) were called active. Inconclusive results, whose numbers are uncertain, are shown with a selection of clear calls. Calls follow the shape of the dose curve; as a rule, active = well fitted inhibition curve with a large enough effect; inconclusive = small, poorly fitted or top-dose-only effect; inactive = no such curve, though single readings can be large or run the other way. Where the call is inconclusive, the potency comes from a doubtful curve fit.
# Assay: Cytotoxic Profiling in NIH 3T3 Cell Line of Diverse Libraries Using Quantitative High-Throughput Screening; also: nearly all actives have a fitted effect of over 55% in size
# Conditions: NIH 3T3 viability, CellTiter-Glo ATP luminescence, 48-72 h; activity change, negative = cytotoxicity: at 96.7 µM (top of the series); series mostly up to 96.7 µM
# How it was run: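 ATP-dependent luminescence (CellTiter-Glo) served as the viability signal for NIH 3T3 cells treated with compound for 48 or 72 hr at 37 °C.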
# % is scaled to controls: 0 for no effect and ±100 for the full control effect; potency is read from the fitted curve at half-maximal effect; tags tell the direction and shape of the fitted curve.
Compound,"activity change, negative = cytotoxicity",Potency,outcome
COc1ccc(-c2cn3cc(C(=O)NC4CCCCC4)nc3s2)cc1,inactive: -10.9%,–,–
O=C(Cc1ccccc1)N1CCC2(CC1)CN(c1ccccc1)C2=O,–,"inconclusive: 35.5 µM [inhibitor, partial curve]",–
CCc1ccc(CNC(=O)C2CCN(c3cc(C(F)(F)F)ncn3)CC2)cc1,–,"inconclusive: 50.1 µM [inhibitor, partial curve, poor fit]",–
CC(C)CCN1CCCC2(C1)C(=NC1CCCCC1)NC(=O)N2c1cc(F)cc(F)c1 (centres undefined),–,"inconclusive: 31.6 µM [inhibitor, partial curve, poor fit]",–
O=C(C[C@@H]1CCNC[C@@H]1Cc1cc(-c2ccccn2)on1)NCc1ccccc1,–,"inconclusive: 126 µM [inhibitor, single point]",–
C#CCNC(=O)c1cc(C(C)(C)C)c2cccn2n1,inactive: -16% [at 138 µM],–,–
O=C(O)c1ccc(CN[C@@H]2CO[C@H](CNS(=O)(=O)c3ccccc3)[C@H]2O)cc1,inactive: -10.2% [at 174 µM],–,–
Cn1cccc1C(=O)N1C[C@@H](COc2ccccc2)[C@H](C(N)=O)C1,–,"inconclusive: 79.4 µM [inhibitor, partial curve, poor fit]",–
O=C(NC1CCN(c2ccnc3ccnn23)CC1)c1cccc(Cl)c1,–,"inconclusive: 100 µM [inhibitor, partial curve, poor fit]",–
N#Cc1cccc(NC(=S)O[C@@H]2CO[C@H]3[C@@H]2OC[C@@H]3n2nnnc2SCc2ccco2)c1,–,"inconclusive: 39.8 µM [inhibitor, full curve]",–
COc1cccc([S+](=O)([O-])N2CCn3ncc(C(=O)Nc4ccc(Cl)cc4Cl)c3C2)c1,–,"inconclusive: 20 µM [inhibitor, full curve]",–
CCOCCOC1CCN(C(=O)c2ccc3[nH]ccc3c2)CC1,–,–,inactive
c1coc(-c2nnc([C@H]3CCN(Cc4cccs4)C3)o2)c1,inactive: -10.9% [at 174 µM],–,–
OCC1CN(c2ncccn2)CC12CCN(Cc1ccc3[nH]ccc3c1)CC2 (centres undefined),inactive: -8.35%,–,–
COc1ccc(C(=O)N[C@H]2[C@H](O)[C@H](O)C[C@@H]2c2ccc(C(F)(F)F)cc2)cc1,inactive: -7.96% [at 138 µM],–,–
CCOc1cccc(NC(=O)c2cc(-c3ccc(C(F)(F)F)cc3)nc3c2cnn3C)c1,–,"inconclusive: 56.2 µM [inhibitor, partial curve, poor fit]",–
COc1ccc(NC(=O)C(C)(C)Oc2nn(C(C)C)c3ccc(CN4CCOCC4)cc23)cc1,–,"inconclusive: 56.2 µM [inhibitor, partial curve, poor fit]",–
COc1ccc(CN2CC3(CCN(C(=O)Nc4cccc(Cl)c4)CC3)C2=O)cc1,–,"inconclusive: 50.1 µM [inhibitor, partial curve, poor fit]",–
COc1cccc(CN2CCc3nc(C(C)C)nc(-c4ccc(O)cc4)c3CC2)c1,–,"inconclusive: 50.1 µM [inhibitor, partial curve, poor fit]",–
COc1cccc(Nc2cccc(CN3CCC(C)(NC(C)=O)C3)c2)c1 (centres undefined),–,"inconclusive: 100 µM [inhibitor, partial curve]",–
COC1CN(c2ccc(C)cc2)C12CCN(C(=O)CCc1nc3ccccc3s1)CC2 (centres undefined),–,"inconclusive: 50.1 µM [inhibitor, partial curve, poor fit]",–
O=C(NCc1cccs1)C1CCCN1c1nccc(Nc2ccccc2F)n1 (centres undefined),–,"inconclusive: 44.7 µM [inhibitor, partial curve, poor fit]",–

Compound,"activity change, negative = cytotoxicity",Potency,outcome
CN1Cc2ccc(Nc3ccccc3)nc2C(C)(C(=O)NCc2ccc3c(c2)OCO3)C1 (centres undefined),–,active: 50.1 µM,–
CCn1c2c(c(=O)n1-c1ccccc1)CCN(C(=O)c1ccc(Oc3ccccc3)cc1)C2,–,"inconclusive: 44.7 µM [inhibitor, partial curve, poor fit]",–
Cc1oc(C(O)c2ccccc2F)nc1C(=O)Nc1ccccc1C(N)=O (centres undefined),–,"inconclusive: 31.6 µM [inhibitor, partial curve, poor fit]",–
Cc1csc(NC(=O)c2cnc3c(c2)N(C(=O)CCc2ccccc2)CCC3)n1,–,active: 89.1 µM,–
COc1ccc(-c2noc(CC3CCN(C(=O)c4cc(F)ccc4Cl)CC3)n2)cc1,–,"inconclusive: 50.1 µM [inhibitor, partial curve, poor fit]",–
COc1ccc2[nH]c3c(c2c1)CCN(C)C31CCNCC1,–,"inconclusive: 50.1 µM [inhibitor, single point]",–
COc1ccc(CCC(=O)N2C[C@@H]3CCCN4CCC[C@@H]([C@H]34)[C@H]2CCCC(=O)N2CCOCC2)cc1,–,–,inactive
CCN1C(=O)CCC2(C(=O)NCCN(C)C3CCCCC3)CCCC=C12 (centres undefined),–,"inconclusive: 70.8 µM [inhibitor, single point]",–
Cn1cc(C(=O)N2C[C@@H](COCC3CC3)[C@H](c3ccccn3)C2)cn1,inactive: -18.6%,–,–
O=S(=O)(c1cccc(F)c1)N1CC[C@@H]2COCCN(Cc3cccnc3)[C@@H]2C1,–,"inconclusive: 50.1 µM [inhibitor, partial curve, poor fit]",–
COc1ccc(CN2CCN(CCC=C(C)C)CC2CCO)cc1C (centres undefined),–,"inconclusive: 44.7 µM [inhibitor, partial curve]",–
CC(C)Oc1ccc(CNC(=O)CCC2CCN(C(=O)c3ccccc3)CC2)cc1,–,"inconclusive: 50.1 µM [inhibitor, partial curve, poor fit]",–
COc1ccccc1Nc1ccnc(N2CCN(C(=O)c3ccc(C(F)(F)F)cc3)CC2)n1,–,"inconclusive: 44.7 µM [inhibitor, partial curve, poor fit]",–
Cc1ccc(CN2CC(Oc3ccccc3C(=O)N3CCOCC3)C2)cc1C,–,"inconclusive: 28.2 µM [inhibitor, full curve, poor fit]",–
Cc1ccc(-n2c(C3CCN(C(=O)c4n[nH]c5c4CCCC5)CC3)n[nH]c2=O)cc1,–,"inconclusive: 50.1 µM [inhibitor, partial curve, poor fit]",–
Cc1nnc2ccc(N3CCC(NC(=O)c4ccc(Cl)cc4)CC3)nn12,–,"inconclusive: 44.7 µM [inhibitor, partial curve, poor fit]",–
Cn1ncc2c(C(=O)NCc3cccnc3)cc(-c3ccc(Cl)nc3)nc21,–,active: 22.4 µM,–
COc1cccc(CC(=O)NC2CCN(c3cnn(C)c(=O)c3)CC2)c1,–,–,inactive
Cc1ccc(C(=O)N2CCC3(CC2)NC(=O)N(c2ccccc2Cl)N3)cc1,–,"inconclusive: 50.1 µM [inhibitor, partial curve, poor fit]",–
CC1(C)C[C@H](NCc2ccc(CO)o2)[C@@]2(CCC(=O)NCCN3CCOCC3)CC[C@](C)(O)C[C@@H]12,inactive: -2.98%,–,–
CCC(=O)N1Cc2ccccc2CC2(CCCN2Cc2ccc(OC)cc2)C1 (centres undefined),inactive: -2.03%,–,–
Cc1ccc(C(=O)N2CCC(CCC(=O)N3CCN(c4ccccn4)CC3)CC2)cc1,inactive: -28%,–,–

Compound,"activity change, negative = cytotoxicity",Potency,outcome
O=C([C@@H]1CCCN1c1nccc(Nc2ccccc2Cl)n1)N1CCC(c2ccccc2)CC1,–,active: 35.5 µM,–
CCN1c2cc(C(=O)N3CCN(c4ccccc4)CC3)ccc2C(=O)N2CCCCCC21 (centres undefined),inactive: -23.2%,–,–
O=C(NCc1cccc(F)c1)C1CCCN1c1nccc(Nc2ccccc2F)n1 (centres undefined),–,"inconclusive: 44.7 µM [inhibitor, partial curve, poor fit]",–
COc1cccc(CC(=O)Nc2ccc3c(c2)CN(Cc2ccccc2Cl)C(=O)C(C)O3)c1 (centres undefined),–,"inconclusive: 10 µM [inhibitor, full curve]",–
Cc1noc(C)c1S(=O)(=O)N1CCC2(CC1)CC(Cc1ccccc1)CCO2 (centres undefined),–,"inconclusive: 50.1 µM [inhibitor, single point]",–
CN(Cc1ccccc1C(F)(F)F)Cc1cccc2ccccc12,–,"inconclusive: 89.1 µM [inhibitor, single point]",–
O=C(NC1CC1)[C@@H]1C[C@H](Oc2cccnc2)CN1C(=O)c1cc2ccccc2[nH]1,inactive: -7.84%,–,–
COCC1CN(C)CC12CCN(Cc1ccsc1)CC2 (centres undefined),inactive: -22.5%,–,–
Cn1ncc2c(C(=O)Nc3ccc(Cl)cc3)cc(-c3ccc(C(F)(F)F)cc3)nc21,inactive: -9.43%,–,–
NC(=O)c1cccnc1N1CCOC(CC(c2ccccc2)c2ccccc2)C1 (centres undefined),–,"inconclusive: 56.2 µM [inhibitor, partial curve, poor fit]",–
Cc1ccc(CN[C@@H]2CO[C@H](CNC(=O)NC(C)C)[C@H]2O)cc1,inactive: -16.1% [at 138 µM],–,–
CNC(=O)c1cc(C2CC2)nc2onc(C3CCN(C(=O)c4ccc(C)cc4)C3)c12 (centres undefined),–,"inconclusive: 31.6 µM [inhibitor, partial curve]",–
Cc1nc(CN2CC3(CCN(C)C3)c3cc(C(=O)NCc4ccccc4)ccc32)cs1 (centres undefined),–,"inconclusive: 100 µM [inhibitor, partial curve, poor fit]",–
O=C(NCc1ccc(Cl)cc1)c1cc2n(n1)CC(c1ccc(Cl)cc1)OC2 (centres undefined),–,active: 35.5 µM,–
COc1ccc(NC(=O)N2CCCC(CN3CCOCC3)CC2)cc1 (centres undefined),inactive: -9.66%,–,–
CCn1nccc1C(=O)N1CCC2(CC1)CC(c1nc(C)no1)N(C)C2 (centres undefined),inactive: -19.8%,–,–
C=CCNC(=O)C[C@@H]1CCN(C(=O)Nc2cccc(C(F)(F)F)c2)C[C@@H]1CC,–,"inconclusive: 79.4 µM [inhibitor, partial curve, poor fit]",–
Cc1ccc(NC(=O)CCC2CCN(S(=O)(=O)c3ccccc3C)CC2)cc1F,–,"inconclusive: 50.1 µM [inhibitor, partial curve, poor fit]",–
C[S+](=O)([O-])c1ccc(-c2cc(C(=O)NCc3cccnc3)nn3cccc23)cc1,–,"inconclusive: 39.8 µM [inhibitor, partial curve, poor fit]",–
COCCn1c2c(c(=O)n1-c1ccccc1)CCN(Cc1ccncc1Cl)C2,–,"inconclusive: 70.8 µM [inhibitor, partial curve, poor fit]",–
